This note sets out measurements from PubChem BioAssay AID488969 (Vanderbilt High Throughput Screening Facility, 2010).

Each structure is given as a SMILES string. In all, about 110,000 compounds were measured (“z-score”: median about -0.1, highest 2% from about 2 on). The list shows a part of the results.

The target of the experiment is Metabotropic glutamate receptor 8 (Rattus norvegicus) (UniProt P70579). The experiment is described as follows: mGluR8 Gi/Go-coupled signaling modulation – cell-based, rat, thallium flux, HTS, primary screen (AID 488969). Particulars: HEK293 rat mGluR8, GIRK (G protein-gated inwardly rectifying potassium channel) thallium flux, FluoZin2; at 10 µM; stronger effect = higher value; submaximal glutamate (EC20) added with thallium.
Sequence of UniProt P70579 (P70579 whole entry, looked up): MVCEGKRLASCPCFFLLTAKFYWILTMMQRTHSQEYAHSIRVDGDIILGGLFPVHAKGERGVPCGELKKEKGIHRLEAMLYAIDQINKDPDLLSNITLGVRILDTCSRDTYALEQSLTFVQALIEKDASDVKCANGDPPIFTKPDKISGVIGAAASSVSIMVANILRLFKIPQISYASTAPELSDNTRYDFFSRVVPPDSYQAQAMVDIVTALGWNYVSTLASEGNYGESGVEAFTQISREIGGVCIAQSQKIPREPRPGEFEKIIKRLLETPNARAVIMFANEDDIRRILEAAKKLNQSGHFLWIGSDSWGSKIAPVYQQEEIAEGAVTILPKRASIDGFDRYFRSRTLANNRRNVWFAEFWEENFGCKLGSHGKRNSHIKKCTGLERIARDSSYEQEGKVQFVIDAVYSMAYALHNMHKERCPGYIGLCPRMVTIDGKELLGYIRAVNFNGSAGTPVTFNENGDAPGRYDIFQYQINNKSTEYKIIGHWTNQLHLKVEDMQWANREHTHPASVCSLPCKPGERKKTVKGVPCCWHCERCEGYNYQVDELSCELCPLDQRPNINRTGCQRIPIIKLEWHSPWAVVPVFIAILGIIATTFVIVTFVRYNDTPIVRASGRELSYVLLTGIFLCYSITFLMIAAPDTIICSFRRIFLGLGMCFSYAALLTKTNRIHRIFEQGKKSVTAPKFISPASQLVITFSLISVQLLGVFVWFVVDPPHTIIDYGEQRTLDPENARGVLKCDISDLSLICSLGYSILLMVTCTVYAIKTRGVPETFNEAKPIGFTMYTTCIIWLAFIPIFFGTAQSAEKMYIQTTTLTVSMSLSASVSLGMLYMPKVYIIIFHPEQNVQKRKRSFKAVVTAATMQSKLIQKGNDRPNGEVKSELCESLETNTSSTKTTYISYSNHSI
`COc1ccc(Cl)cc1NC(=O)CSc1nnc(COc2ccccc2)n1C` came in with a z-score of 0.115.
The compound `O=C(NCCN1CCOCC1)c1cc2c(=O)n3ccccc3nc2n1Cc1ccccc1` came in with a z-score of -0.597.
In the case of `COC(=O)c1cccc(NC(=O)CSc2nc(=O)cc(N)n2-c2ccccc2)c1` it was -0.849; in that of `O=C(Cn1cnc2ccc(Br)cc2c1=O)c1cccs1`, -0.0739.
In the case of `CC(C)C(=O)Nc1cc(S(=O)(=O)Nc2cccc(Cl)c2)ccc1Cl` it was -0.319; in that of `O=C(NCCCN1CCOCC1)c1cc(-c2ccc(Cl)cc2)on1`, -0.935; in that of `O=S1(=O)NC2CCCCCN2c2ccc(F)cc21` (stereo not drawn), 1.64.
In the case of `CC(C)NC(=O)CSc1nc2ccccc2n1-c1ccccc1` it was -0.342; in that of `O=C(NC1CCCCC1)C1CCCN1S(=O)(=O)c1cccc2nsnc12` (stereo not drawn), 0.136.
With `Cc1nnc(N(C)C(=O)c2cccnc2)s1`, the z-score is -0.301.
In the case of `CCc1nc2c(sc3nc4c(cc32)COC(C)(C)C4)c(=O)n1Cc1ccco1` it was 0.257; in that of `CC1(C)Cn2c(nnc2-c2cccc(O)c2)S1`, -0.0205.
As for `O=C(/C=C/c1ccc(F)cc1)NCc1cccs1`, the figure is -0.384; as for `CC[n+]1c(/C=C2\C=C(C)CC(C)(C)C2)sc2ccccc21`, 0.585.
In the case of `O=C(Nc1cc(C(=O)N2CCOCC2)cc(C(=O)N2CCOCC2)c1)c1cc(F)c(F)cc1Cl` it was 0.199; in that of `COc1ccc(-c2csc(N3CCN(C(=O)c4ccco4)CC3)n2)cc1`, -0.0853.
The compound `Nc1nc(NCc2ccco2)nc(N2CCCCCC2)c1[N+](=O)[O-]` registered a z-score of -0.723.
As for `CC1=Nc2cccc3cccc(c23)N1`, the figure is 0.207; as for `Cc1ccc(S(=O)(=O)Cc2cccc(C(=O)N3CCOCC3)c2)cc1`, 0.116; as for `Cc1cc(CC(C)C)n(-c2nc3ccccc3c(=O)n2OCc2ccccc2)n1`, 0.802.
In the case of `O=C(Cc1cccs1)Nc1ccccn1` it was 0.281; in that of `O=C(N[C@@H](Cc1ccccc1)C(=O)NC1CCCCC1)c1ccco1`, 0.0119.
As for `Cc1ccc(C(=O)N/C(=C\c2ccc([N+](=O)[O-])cc2)C(=O)NCCc2ccccc2)cc1`, the figure is -0.0772; as for `O=C(O)c1nn(-c2ccc(Cl)cc2)ccc1=O`, 0.195.
`CCOCCCNS(=O)(=O)Cc1ccccc1` showed a z-score of 0.197.
In the case of `O=C(CN1CCN(c2ccccc2)CC1)Nc1ccc2c(c1)CCC2` it was 0.173; in that of `Cc1ccc2[nH]cc(CCNC(=O)c3cccnc3)c2c1`, -0.0656.
As for `CCOC(=O)/C(=N/Nc1ccccc1)c1csc(Nc2ccccc2)n1`, the figure is -0.124; as for `CCCCOc1ccc(/C=C2/Sc3ccccc3C2=O)cc1`, 0.0561.
In the case of `Cc1ccc(C(=O)c2c[nH]c(C(=O)NCc3cccnc3)c2)cc1` it was -0.257; in that of `COc1ccc(-c2c3c(=O)n(C)c(=O)n(C)c3cn2NC(C)=O)cc1`, 0.258; in that of `COc1c(S(=O)(=O)N2CCCCC2)ccc2c(S(=O)(=O)N3CCCCC3)cccc12`, -0.152.
`COC(=O)c1sc2ccccc2c1NC(=O)c1ccc(S(=O)(=O)N2CCCC(C)C2)cc1` (stereo not drawn) yielded a z-score of -0.17.
As for `CCOc1ccc2[nH]c3c(N4CCN(c5ccccn5)CC4)ncnc3c2c1`, the figure is -1.41; as for `O=C(CSc1n[nH]c(-c2cccs2)n1)N1CCN(S(=O)(=O)c2ccc3ccccc3c2)CC1`, -0.0541; as for `COc1ccc(NC(=O)CSc2nnc(C(C)C)n2N)cc1`, -0.0537.
Compound `CC(=O)c1ccc(OCC(O)CN2C(C)(C)CC(O)CC2(C)C)cc1` (stereo not drawn) gave a z-score of -0.153.
As for `CCCc1cc(C(=O)N2CCN(S(=O)(=O)c3ccc(OC)c(OC)c3)CC2)cs1`, the figure is -0.181; as for `c1ccc(-c2nnc(SCc3nc4ccccc4[nH]3)n2Cc2ccco2)nc1`, -0.0863; as for `CCN(CC)C(=O)c1cc2c(=O)n3ccccc3nc2s1`, -0.312.
As for `COc1ccc(OC)c(S(=O)(=O)Nc2cc(Cl)cc(Cl)c2)c1`, the figure is 0.365.
On to `COc1ccc(Oc2ccc3c(C(F)(F)F)cc(C(F)(F)F)nc3n2)cc1`, for which the z-score is -0.0388.
As for `COc1ccc(-c2nnc(SCC(=O)Nc3ccc(C)cc3)n2C)cc1`, the figure is -0.161.
As for `COc1ccccc1N(CC(=O)NC(C)(C)C)C(=O)C1CSC(=O)C1` (stereo not drawn), the figure is 0.827; as for `COc1cc(/C=N/NC(=O)c2ccoc2C)ccc1O`, -0.489; as for `COc1cccc(-c2csc3nc[nH]c(=O)c23)c1`, 0.947.
As for `CCOC(=O)N1CCN(C(=O)C(NC(=O)c2ccc(CC)cc2)C(C)C)CC1` (stereo not drawn), the figure is -0.104.
In turn, `CSc1nc2c(c(=O)[nH]1)C(c1ccncc1)C(C(=O)OC(C)C)=C(C)N2` (stereo not drawn) returned a z-score of 0.292.
`COc1ccc(NC2=Nc3cccc4cccc2c34)cc1` displayed a z-score of -0.54.
In the case of `CC(C(=O)NC1CCCC1)N(C(=O)c1ccc(-c2ccccc2)[nH]1)c1ccccc1F` (stereo not drawn) it was 0.534; in that of `CCCCn1nc2cc(C(=O)N(CC)c3ccc(OC)cc3)ccc2c1OCC`, -0.624; in that of `CCCCn1nnc(NC(=O)CCC)n1`, 0.782.
In the case of `COc1cccc(Oc2nc3ncn(Cc4ccccc4)c3c(=O)n2C)c1` it was -0.674; in that of `CCCOC(=O)c1cc(=O)[nH]c2ccccc12`, -0.0144.
In the case of `Cc1ccc(C)c(NC(=O)C2CC(Cl)=CCC2C(=O)O)c1` (stereo not drawn) it was -0.773; in that of `N#Cc1c(NC(=O)c2ccc(-c3ccccc3[N+](=O)[O-])o2)sc2c1CCCC2`, -0.247.
In the case of `Cc1ccc(COc2coc(CO)cc2=O)cc1`, the z-score was -0.0138.
Compound `Cc1ccc(S(=O)(=O)Nc2c(C)ccc3nsnc23)cc1` came in with a z-score of 0.21.
In the case of `CCOCCn1c(SC)nc2c1c(=O)[nH]c(=O)n2C` it was 0.161.
Regarding `Cn1c(=O)[nH]c(=O)c2c1nc(N1CCNCC1)n2CCOc1ccccc1`, the z-score was -0.176.
As for `CCOC(=O)C(C(=O)Nc1ccccc1C)C1CCCCC1` (stereo not drawn), the figure is -0.631.
Turning to `S=c1[nH]nc(C2CC2c2ccc(Cl)cc2)n1-c1ccc(Cl)cc1` (stereo not drawn), the z-score was found to be 0.549.
As for `COC(=O)Cn1c(C)c(C#N)c2ccccc21`, the figure is -0.127; as for `O=C(O)c1ccccc1C(=O)Nc1ccccc1`, -0.0814.
As for `O=[N+]([O-])c1cc(Cl)cc(/C=N\Nc2ccccn2)c1O`, the figure is -0.349.
As for `CCCC(C)C(=O)Nc1nc(C)c(-c2csc(Nc3ccc(Cl)cc3)n2)s1` (stereo not drawn), the figure is 0.225; as for `Cc1ccsc1/C=C1/SC(N2CC(C)OC(C)C2)=NC1=O` (stereo not drawn), -0.238.
Regarding `CCCCN(C)CCCNC(=O)c1ccc2c(c1)NC(=O)C(N1CCOCC1)S2` (stereo not drawn), the z-score is 0.264.
`O=C(NCC1CCCO1)c1ccc(/C=N/O)nc1` (stereo not drawn) yielded a z-score of -0.978.
As for `Cc1ccccc1-n1ncc2c(SCC(=O)N3c4ccccc4CC3C)ncnc21` (stereo not drawn), the figure is -0.217; as for `Oc1ccc(Cl)cc1-c1cc(-c2ccccc2Cl)[nH]n1`, 0.0076; as for `CCC(=O)Nc1cccc(-c2cn3ccccc3n2)c1`, 0.0803.
In the case of `Cc1cc(N2CCOCC2)nc(-c2ccc([N+](=O)[O-])cc2)n1` it was 1.09; in that of `CCOc1ccc(N(CC(=O)Nc2ccccc2C(=O)NCc2ccco2)S(C)(=O)=O)cc1`, -0.34.
As for `CSC1=NCCN1C(=O)C(C)(C)Oc1ccc(Cl)cc1`, the figure is -0.0535; as for `COC(=O)c1ccc(NC(=O)CSc2nnc(COc3c(C)cccc3C)o2)cc1`, -0.0223; as for `COc1cccc(-n2c(CN3CCN(c4ccc(C)cc4)C(C)C3)nc3ccc([N+](=O)[O-])cc3c2=O)c1` (stereo not drawn), -0.234.
In turn, `O=C(NCc1ccco1)c1ccc(COc2ccc(Cl)cc2)cc1` showed a z-score of 0.107.
As for `COc1ccc(Cc2ccc(OC)c(N)c2)cc1N`, the figure is -0.182.
As for `Cc1ccc(CNC(=O)c2nc3nc(C)cc(C)n3n2)cc1`, the figure is -0.588; as for `CCN1C(c2ccc(F)cc2)=CS/C1=C(\C#N)c1nnc2n1-c1ccccc1SC2`, -0.761; as for `CCS(=O)(=O)N1CCN(Cc2ccccc2OC)CC1`, 0.515.
In the case of `CN(C)C(CNC(=O)NC1CCCCC1)c1cccnc1` (stereo not drawn) it was 0.105; in that of `CCCNC(=O)OCC12CC3CC(CC(C3)C1)C2`, -0.131; in that of `O=C(Nc1ccc([N+](=O)[O-])cc1)C1C(c2ccccc2)=C1c1ccccc1`, -0.135.
For the compound `COC(=O)c1ccc(-n2c(C)ccc2-c2ccccc2)cc1`, the z-score was -0.0816.
As for `CC(C)(C)n1nnnc1C(c1cccc(C#N)c1)N1CCC(Cc2ccccc2)CC1` (stereo not drawn), the figure is -0.214; as for `C/C(=N\NC(=O)c1ccc(Cl)cc1)c1cccc(NC(=O)C(C)C)c1`, -0.00381; as for `Cc1ccc(O)c(N=Cc2cccs2)c1`, -0.0333.
`Cc1cccc(CC2S/C(=N/c3ccccn3)NC2=O)c1` (stereo not drawn): the z-score was -0.0779.
Take `c1ccc(-n2c(SCc3nc(-c4cccs4)no3)nnc2-c2ccco2)cc1`: the z-score is -1.55.
`CCc1c(O)nc2ccccn2c1=O` yielded a z-score of -0.0798.
As for `Cc1nnc(SCC(=O)Nc2nc3c(s2)CC(C)CC3)s1` (stereo not drawn), the figure is 0.0116; as for `O=C(CSc1nnc(-c2ccco2)n1-c1ccccc1)N1CCOCC1`, -0.0477; as for `O=C(O)Cn1c(C(F)(F)F)nc2ccccc21`, -0.399.
In the case of `COc1cc(NC(=O)CSc2ncnc3c2cnn3Cc2ccccc2)cc(OC)c1` it was -0.493.
As for `CC1=NN(c2ccc(Cl)cc2)C(=O)C1C(c1ccccc1O)c1c(C)[nH]n(-c2ccc(Cl)cc2)c1=O` (stereo not drawn), the figure is -0.5; as for `CC1CCN(S(=O)(=O)c2ccc(NC(=O)N3c4ccccc4Sc4ccccc43)cc2)CC1`, -1.05; as for `Cc1ccc2[nH]c(O)c(N=NC(=O)C3CC3c3ccccc3)c2c1Br` (stereo not drawn), -0.417.
In turn, `COc1ccccc1NC(=O)CN1CCCCC1` gave a z-score of 0.635.
As for `O=C(c1cccc(S(=O)(=O)N2CCCCC2)c1)N1CCc2ccccc21`, the figure is -0.782; as for `O=C(OCc1nnc(-c2ccccc2)o1)c1ccc2c(c1)C(=O)N(CCc1ccccc1)C2=O`, -0.481; as for `O=C(Nc1ccc(Cl)cc1)OCc1cc(-c2ccccc2)on1`, -0.197.
`COc1cc(/C=C/C(=O)c2ccc(O)cc2)ccc1OCC#N`: the z-score was determined as 0.0445.
The compound `CC(C)CC(=O)Nc1ccc2oc(-c3ccncc3)nc2c1` returned a z-score of -0.0096.
In the case of `Cc1cc(C(=O)COC(=O)CNC(=O)c2ccco2)c(C)n1Cc1ccco1` it was -0.202; in that of `CCOc1ccccc1N=c1oc2cc(O)ccc2cc1C(=O)NCC1CCCO1` (stereo not drawn), 0.205; in that of `CCOC(=O)c1c(C)[nH]c(C)c1C(=O)CSc1nnnn1-c1ccccc1`, -1.04.
In the case of `Cc1ccsc1-c1nc(CSCC(=O)N2CCN(c3ccccc3)CC2)c(C)o1` it was -0.547; in that of `CC(=O)NCC(=O)OCC(=O)c1ccccc1`, 0.372; in that of `OCCN(CCO)Cc1ccc(Br)cc1`, 0.026.
In the case of `O=C(NCCCn1ccnc1)c1ccc2c(c1)OCCO2` it was 0.0722; in that of `CCCSc1nc(SCC(=O)NCc2ccccc2)c2c3c(sc2n1)COC(C)(CC)C3` (stereo not drawn), -0.215.
